# According to paper PMC6919601, “Identification of Plasmodium dipeptidyl aminopeptidase allosteric inhibitors by high throughput screening” (PLoS ONE, 2019):
# “And” between values parts separate entries of the source, which are not always exact repeats. Equal values may be shown once. Hit rate of the full screen: of about 110,000 compounds, about 230 (0.21%) showed an effect of 50% or more. The list shows a part of the results.
# Target: DPAP1 (Plasmodium falciparum, UniProt Q8IIJ9)
# Assay: primary screen, percent inhibition; read by cleavage of a fluorogenic dipeptide substrate; higher = more effect of the substance
# Parameters: species or system P. falciparum D10 trophozoite lysates; single well
# 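Note: 30 min substrate incubation versus DMSO and 10 µM JCP410 controls.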
# DPAP1, sequence (Q8IIJ9 whole entry, looked up): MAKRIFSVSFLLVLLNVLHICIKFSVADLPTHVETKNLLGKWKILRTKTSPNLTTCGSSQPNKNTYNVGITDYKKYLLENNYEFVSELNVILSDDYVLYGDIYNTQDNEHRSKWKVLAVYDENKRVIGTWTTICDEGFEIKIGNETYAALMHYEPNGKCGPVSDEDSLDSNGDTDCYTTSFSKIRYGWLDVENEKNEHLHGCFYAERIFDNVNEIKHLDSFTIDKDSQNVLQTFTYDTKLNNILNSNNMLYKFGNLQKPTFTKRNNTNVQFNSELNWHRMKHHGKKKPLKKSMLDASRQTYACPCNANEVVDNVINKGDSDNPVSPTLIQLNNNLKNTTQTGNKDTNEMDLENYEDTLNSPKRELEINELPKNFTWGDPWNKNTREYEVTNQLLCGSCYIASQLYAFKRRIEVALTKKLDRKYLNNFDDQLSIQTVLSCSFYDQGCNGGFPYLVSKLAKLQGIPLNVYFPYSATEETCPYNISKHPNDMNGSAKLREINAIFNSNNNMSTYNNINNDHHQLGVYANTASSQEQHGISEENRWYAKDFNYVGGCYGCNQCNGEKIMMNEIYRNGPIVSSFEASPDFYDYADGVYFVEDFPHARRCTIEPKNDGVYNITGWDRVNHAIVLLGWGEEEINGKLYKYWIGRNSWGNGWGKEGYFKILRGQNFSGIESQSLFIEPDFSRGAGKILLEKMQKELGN
row,Compound,% Inhibition @ 10 uM
1,Cc1cccc(OCC(=O)Nc2nc[nH]n2)c1C,-0.142%
2,O=C(O)/C=C/C(=O)NCCc1ccccc1,3.06% and -5.64%
3,COc1ccc(OC)c(-c2c(C#N)c(N)nc(OC)c2C#N)c1,-0.999%
4,Cc1n[nH]c(C)c1-c1c(C)n[nH]c1C,-1.76%
5,COc1ccc(C(=O)Nc2cnn(Cc3ccc(Cl)cc3Cl)c2)cc1OC,0.145%
6,O=C(Cc1cccs1)NCc1ccccc1Br,0.0198%
7,Cc1ccccc1CNC(=O)Cn1ncc2ccc(Cl)cc21,5.39%
8,Cc1ccc(NC(=O)c2ccc(OC(C)C)cc2)cc1,-3.71%
9,COc1cc(CNCCSc2nnnn2C)ccc1OCC(N)=O,0.00706%
10,CCn1cc(C(=O)O)c(=O)c2c(N)c(F)c(N3CCNCC3)c(F)c21,3.54%
11,CCC1CCCCN1Cc1cccc(Oc2ccccc2)c1 (stereo not drawn),3.24%
12,O=C(NCc1ccccn1)c1ccccc1Br,-3.94%
13,O=c1cnnc2sc(SCc3cccc(Cl)c3)nn12,1%
14,COc1cccc(C/N=c2/c(-c3ccc(C(C)C)cc3)c(O)c2=O)c1,-2.87%
15,COc1ccc(-n2nnc(-c3nsc(NC(=O)c4ccccc4C)n3)c2C)cc1OC,6.57%
16,CCOC(=O)c1c(-c2cccc(OC)c2)csc1N,-4.24%
17,CCn1c(=O)n(Cc2ccccc2)c(=O)c2sc3ccccc3c21,5.46%
18,CCCCN(CC)CCNC(=O)c1cc2cc3ccc(Cl)cc3nc2o1,1.9%
19,Cc1ccc2nc(Cl)c3cc(C(=O)N4CCC(=O)CC4)sc3c2c1,1.42%
20,CCCOC(=O)c1ccc(NC(=O)c2cccs2)cc1,-1.22%
21,CCn1c(C(=O)O)c(CNCCc2ccccc2Cl)c2ccc(C)cc21,-0.118%
22,CCCOc1ccc(C2C(C#N)=C(N)OC3=C2C(=O)CCC3)cc1OC (stereo not drawn),1.08%

row,Compound,% Inhibition @ 10 uM
1,COc1ccc(S(=O)(=O)N2CCN(Cc3ccc(Br)cc3)CC2)cc1,-1.1%
2,CS(=O)(=O)C1=NSC2=NC(=O)/C(=C\c3ccc(Br)o3)C(=N)N21,3.48%
3,Cc1ccc(-c2noc(CCC(=O)N3CCN(c4ccccn4)CC3)n2)cc1,0.738%
4,O=C(O)c1ccc(/C=C2\NC(=O)N(Cc3ccc(Cl)cc3)C2=O)cc1,2.17%
5,O=S(=O)(c1ccc(-n2cnnn2)cc1)N1CCNCC1,1%
6,COc1cc(/C=C2\S/C(=N/c3ccc(C)c(C)c3)N(C)C2=O)ccc1OCC(=O)O,6.15%
7,CCCOc1ccccc1C1CC(=O)NC(C)=C1C(=O)OCC1CCCCC1 (stereo not drawn),-1.62%
8,CCOc1ccccc1C(=O)Nc1ccc(C(=O)c2ccccc2)cc1,-8.36%
9,COc1ccccc1OCC(=O)N(Cc1nc(-c2ccc(C)cc2)no1)C(C)C,0.232%
10,Cc1ccc(S(=O)(=O)NCCCCCC(=O)Nc2nccs2)cc1,-1.6%
11,Cn1cc(CC(=O)NCCCN2CCCC2=O)c2ccccc21,-3.28%
12,CC(C)NC(=O)CCCOc1ccc(Cl)cc1Cl,-1.48%
13,Cc1cccc(Cn2c(Sc3nncn3C)nc3c2c(=O)[nH]c(=O)n3C)c1,0.758%
14,CCn1cc(C(=O)O)c(=O)c2cc(N3CCOCC3)c(F)cc21,4.65%
15,COc1ccc(-n2c(C)cc(C(=O)CN3CCCCC3)c2C)cc1,1.81%
16,CC(C)(C)c1ccc(-c2nnc3sc(-c4ccco4)nn23)cc1,3.38%
17,Cc1cc(C)c(C)c(OCCCN2CCCCC2)c1,1.35%
18,O=C(NC1CCCCCC1)c1cccs1,3.47%
19,CCc1cc(=O)oc2c3c(c(Cl)cc12)OCN(Cc1ccccc1)C3,0.895%
20,Cc1ccc(OCC(=O)NC2CCS(=O)(=O)C2)c(C)c1 (stereo not drawn),-5.35%
21,O=C1CSC(c2ccc(Cl)cc2)N1c1ccc(Cl)cc1 (stereo not drawn),-0.0217%
22,COc1ccc(C2=CC(c3cc(Cl)ccc3OC(F)F)n3nnnc3N2)cc1 (stereo not drawn),1.73%

row,Compound,% Inhibition @ 10 uM
1,CSCCC(C(=O)Nc1ccc(C(C)=O)cc1)N1C(=O)c2ccccc2C1=O (stereo not drawn),-0.564%
2,Cc1cc(C)c(Cn2c(C)c(CNCc3ccccc3)c(C(=O)O)c2C)c(C)c1,-1.92%
3,Nc1nc(O)c(Br)c(Oc2ccc(F)cc2)n1,-1.05%
4,Cc1c2cnn(CC(=O)N3CCC(C(N)=O)CC3)c(=O)c2c(C)n1Cc1ccccc1F,-0.447%
5,CC(=O)c1c(O)cc(C)o/c1=N\c1ccc2c(c1)OCCO2,2.69%
6,CCOc1ccccc1N1C(=O)C2CC(C)=C(C)CC2C1=O (stereo not drawn),-4.82%
7,Cc1cc(NC(=O)c2cc(C)on2)n(-c2ccccc2)n1,-3.77%
8,O=C1c2ccccc2S(=O)(=O)N1CC(O)Cn1ccc2ccccc21 (stereo not drawn),-1.72%
9,Cc1cccc(C)c1OCC(O)CN(C)S(=O)(=O)O (stereo not drawn),3.32%
10,CCc1ccc2nc(N(CCN(C)C)C(=O)c3ccc(C(=O)OC)cc3)sc2c1,-1.95%
11,COC(=O)c1cc2oc3ccccc3c2n1Cc1cc(=O)n2ccccc2n1,4.83%
12,Cc1ccc(S(=O)(=O)Nc2cccc(C(N)=O)c2)cc1,-12.1%
13,CCN(CC)C(=O)C1=C(C)Nc2nc3ccccc3n2C1c1cc(OC)ccc1OC (stereo not drawn),4.85%
14,O=C(NCC1(c2ccccc2)CCCC1)c1cc2ccccc2o1,2.3%
15,Nc1c(C(=O)c2cccs2)sc2nc(-c3cccs3)ccc12,0.385%
16,COc1ccccc1-n1c(CNCC2CCCO2)nc2ccccc2c1=O (stereo not drawn),3.58%
17,COc1ccc(OCc2cccc(C(=O)N3N=C(C(F)F)CC3(O)C(F)F)c2)cc1 (stereo not drawn),1.39%
18,c1ccc2nc3c(nc2c1)c1ccccc1n3CN1CCOCC1,-2.18%
19,COc1ccc(C2=NN3C(C2)c2cc(OC)ccc2OC3c2cccnc2)cc1 (stereo not drawn),27%
20,O=C(Nc1noc2ccccc12)c1ccc(CS(=O)(=O)Cc2ccccc2F)o1,6.76%
21,CCCCC1=NN(C(=O)c2cccc(OC)c2)C(O)(C(F)(F)F)C1 (stereo not drawn),0.673%
22,CC(C)Cn1c(=O)c2sccc2n2c(CCCC(=O)NC(C)C34CC5CC(CC(C5)C3)C4)nnc12 (stereo not drawn),-2.72%
